Source: the supplement of paper PMC3334620
Over roughly 33,000 sequences, “E-score (-0.5 to 0.5)” has its median near -0.021; the highest 2% begin near 0.32. The list shows a part of the results.

target: T1, Zap1 (UniProt P47043); experiment: PBM E-score (8-mer binding enrichment) (E-score (-0.5 to 0.5)); higher = stronger / more preferred TF binding; most listed sequences are background and not binding sites; details: protein concentration: 200 nM; construct: GST-full length
T1 sequence: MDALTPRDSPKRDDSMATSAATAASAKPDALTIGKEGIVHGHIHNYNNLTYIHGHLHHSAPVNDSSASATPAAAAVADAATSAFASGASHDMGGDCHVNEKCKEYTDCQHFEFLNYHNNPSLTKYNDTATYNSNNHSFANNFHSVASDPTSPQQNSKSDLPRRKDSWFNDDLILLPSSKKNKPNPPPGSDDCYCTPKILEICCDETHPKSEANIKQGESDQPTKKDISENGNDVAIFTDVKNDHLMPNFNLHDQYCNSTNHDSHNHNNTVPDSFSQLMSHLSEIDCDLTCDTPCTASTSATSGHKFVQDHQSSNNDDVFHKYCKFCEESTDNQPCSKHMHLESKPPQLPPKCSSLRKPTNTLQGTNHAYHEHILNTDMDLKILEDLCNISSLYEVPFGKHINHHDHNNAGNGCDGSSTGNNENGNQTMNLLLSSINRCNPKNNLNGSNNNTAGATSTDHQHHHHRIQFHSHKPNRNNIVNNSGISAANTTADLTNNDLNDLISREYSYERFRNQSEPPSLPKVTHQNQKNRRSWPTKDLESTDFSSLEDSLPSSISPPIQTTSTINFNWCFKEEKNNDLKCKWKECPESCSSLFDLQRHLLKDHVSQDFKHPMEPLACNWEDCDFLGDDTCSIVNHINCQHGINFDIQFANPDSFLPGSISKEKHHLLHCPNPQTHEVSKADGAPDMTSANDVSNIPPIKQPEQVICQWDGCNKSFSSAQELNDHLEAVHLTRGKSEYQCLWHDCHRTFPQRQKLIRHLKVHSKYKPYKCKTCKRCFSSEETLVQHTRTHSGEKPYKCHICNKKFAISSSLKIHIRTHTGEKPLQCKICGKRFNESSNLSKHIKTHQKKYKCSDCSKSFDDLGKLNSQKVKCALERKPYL
Procedure, shortened: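 Universal all-10-mer Agilent arrays, double-stranded by primer extension on fresh or once-stripped slides, were probed with about 100-200 nM GST-tagged yeast transcription factors made by PURExpress. Fluorescent anti-GST detected bound protein, and masliner normalised the scans. E-scores from the Universal PBM Analysis Suite were given to each ungapped eight-base word pooled with its reverse complement.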

Sequence	PBM E-score
CGAATTCC	-0.0897
AGTCCCAC	-0.0876
ATGCAATA	-0.11
CGAAATAA	0.121
GCAACAAC	-0.0651
TCACTTCA	-0.189
GGTGTAGA	0.0373
AGCACCGG	0.00821
ATCTCCAC	-0.169
AATAAAAT	0.148
GCCTGGCA	-0.333
GATTCCCA	0.0164
AAGCGTTC	-0.09
AGCATCCT	-0.27
AGACATCT	-0.00245
ACAAATAT	0.0845
GGAGCGTA	-0.24
AGACAACA	-0.0972
TCTCTCAA	0.0545
AAACTAAC	0.254
AAGACACC	0.0129
ATTAGTCC	-0.0033
ACTCGTTA	-0.14
ACATATTA	0.2
CTGGTAAG	0.055

Sequence	PBM E-score
AAGAGGAA	-0.134
AGGTTTGA	0.187
GGCGGTAC	0.183
GATGCGCA	-0.104
ATGTGTGG	-0.174
TCAGCGCA	-0.194
CGCCAGAG	-0.201
CTGCAAAA	0.0874
AACGCGAT	-0.111
ATTAGAAT	0.0647
ACGCATTG	-0.234
ATTACAGC	-0.0895
AAAAGATG	-0.0197
CAGAACCA	0.213
CCGAGATC	-0.072
GATCGTAA	0.0242
CAAGGTTC	0.0224
CCCAACTC	0.0123
AAAACCTT	0.221
GACAAGAA	0.103
GACGTCGC	-0.221
CATGGGCC	0.0373
ATATCGGC	-0.0164
CTATCCTC	-0.137
TACCAGTA	0.2

Sequence	PBM E-score
GGAAGTAC	-0.00414
GTGCTGAA	-0.117
GTCCCGAC	-0.0287
ACCGACGA	-0.0704
CATTAGGA	0.0839
GGGTGGAA	-0.0836
GGTCGTAC	0.0525
TATTAAAA	0.228
GAAGACTC	-0.244
ACCGCGGT	0.237
ATATATCC	0.124
CCCTTCCG	0.0394
AGGTAGAT	0.0029
ACTAGAGT	-0.0234
AACAGTAA	0.0691
AATCTGCG	-0.0617
CCCTTTAC	0.162
AAAAAGTA	0.212
ACAGCTCT	-0.299
ACTGTTAA	0.0957
CTCTAGAG	0.11
GATGACAC	-0.0243
CAACGATG	-0.154
ACGCCCGC	-0.208
AACTTTCG	0.0752

Sequence	PBM E-score
AATGGATA	-0.0177
CCCTCTGA	0.0399
GTCTGTCA	-0.05
AGGAAAAG	0.113
GTTCAGCA	-0.0152
CATCGTCA	0.048
GTGGGCCA	0.0829
ATCGAGGC	-0.221
AAAGGAGT	-0.103
ACCTGGTG	0.0112
AATCGCGG	-0.0922
GGTCCAAC	0.0862
GATGTACA	0.0332
CGTCAGGA	-0.0678
GACTGAAC	-0.199
CACCTGCC	-0.102
AGATGTAT	-0.11
ACAGAATC	-0.112
TATATTAA	0.257
ACTGCGAC	0.0296
CTAGGTAA	0.0356
TAACTCGA	0.287
CAGTAGCG	-0.113
AACTTGTC	-0.0387
ACCGCTAG	0.0126

Sequence	PBM E-score
AAACGAGG	0.112
ACACGTGA	-0.0213
CGAATAAC	0.211
ACCGAGGT	0.215
GAGCCAGC	-0.327
GTGTTCAA	-0.00542
CCTCACCG	-0.121
CCCCCGAC	-0.212
AAAGCGGC	-0.0427
CGAAGTTA	0.0274
CTCTCTTA	-0.193
AGTGCTCA	-0.212
ACTTTAAA	0.131
AGACGTGG	-0.252
CAAGCTCA	-0.197
AGCGGTGG	-0.0938
CGATTATA	0.00501
AAGTCCTC	-0.114
AATCCTGT	0.0442
CTTATGAC	0.133
GAATTCGA	-0.0698
CGTTATTC	-0.0367
GCTGAGAA	-0.156
AGCATGTA	-0.194
GGTATACC	0.263

Sequence	PBM E-score
CACCGAGC	-0.0907
CCATGCAC	-0.157
AGTGTTCC	0.0611
GGGGACCA	-0.159
ACTTTTCC	0.0611
ATAGAGAG	-0.325
TGTTGCAA	0.151
TATGAGCA	-0.234
GAGCGGCA	-0.264
CAAGCCCC	-0.085
ATATAAAT	0.147
CAGTGACA	-0.128
AACCCAAA	0.35
ACTAGCTG	-0.214
CCCGCGAC	0.0273
AGTTAGCG	0.0959
CACTTAGA	0.0224
CGTTACAA	0.121
GTAACAGA	0.251
GGACTCAA	-0.109
ATAACGAG	-0.0457
GGAACGCA	-0.102
TGATTGAA	0.154
CATGTTTC	0.193
CTCGTAAA	-0.00604

Sequence	PBM E-score
AGGCCCGA	-0.248
ATTTATCA	0.0928
ACGAAAGA	-0.0795
ATGACGCG	-0.123
CTCACTTA	-0.119
AACTGTCC	-0.135
CACGTGGA	0.0481
CGCCCTAG	-0.00248
TTGAACAA	-0.0174
AAAGTGTA	-0.0268
TCGCTTAA	-0.0306
AGACCGTA	-0.0329
CAAGGATC	0.0812
CCCGGCAG	-0.1
ATGCGTGG	-0.122
ACTAGATC	-0.115
GACCTCGA	0.277
ACCTAACG	-0.0112
ATCTAAGG	-0.0157
ATCCGTGA	0.0221
ACATCTCA	-0.0391
ATTACCAG	0.0782
